Measured values reported in the RNAGym collection of RNA variant scans (doi:10.1093/nar/gkz1192).
Read counts are not given, so values of variants with three or more changes are uncertain.

B1: CPEB3 Ribozyme (parent)
chain: UAACAGGGGGCCACAGCAGAAGCGUUCACGUCGCAGCCCCUGUCAGAUUCUGGUGAAUCUGCGAAUUCUGCUGUAUAUCUC

Variants of: B1
Assay: self-cleavage, relative activity (ratio to wild type); higher = more cleavage; in vitro, sequencing
Outline: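 Libraries of CPEB3 self-cleaving ribozyme mutants came from rounds of error-prone PCR and carried barcodes, which DNA sequencing matched to variants. In vitro transcription used T7 RNA polymerase at 37°C for 5 hours, with a further 15 min in DNase I before EDTA stopped the reaction; the ribozymes cleaved during both steps. The RNA was reverse transcribed with template switching and sequenced on Illumina. Relative activity is the cleaved/total read fraction of a variant divided by that of the unmutated ribozyme, averaged over three batches with at least 5 reads.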

Variant | self-cleavage
A20U U26A G36U A77U | 0.11
A20U U26A U31C U41A | 0.56
A20U U26A U58C U72C | 0.11
A20U U26C A35U U48A U54C A65G | 0.07
A20U U26C A47U U60C | 0.08
A20U U26C C32A C71A U72C | 0.09
A20U U26C C40G U49C U69A C81G | 0.05
A20U U26C G30U | 0.16
A20U U26C G63A | 0.17
A20U U26C U31C C38U | 0.23
A20U U26C U41G U49A U66C | 0.13
A20U U26C U43A U60C | 0.18
A20U U26C U51C C68A | 0.13
A20U U26C U51C U80A | 0.05
A20U U26C U54A | 0.24
A20U U26C U60C U67C U72C A75G | 0.11
A20U U26C U69A | 0.08
A20U U31A A35G U43C A57G U76C | 0.16
A20U U31A A35U U60A | 0.06
A20U U31A A45U A47G U80A | 0.18
A20U U31A U41C G55A A65G U72A G73A | 0.09

Variant | self-cleavage
A20U U31A U41C G55A G73A | 0.09
A20U U31A U78C | 0.11
A20U U31C A64C A65G | 0.5
A20U U31C A65G | 0.15
A20U U31C C32G C37G U43A A64U | 0.11
A20U U31C G42A A45G | 0.14
A20U U31C U43C U48C U60C | 0.07
A20U U31C U48C A64G | 0.13
A20U U31C U51C | 0.14
A20U U31C U51C U54C | 0.18
A20U U31G A45C U67C | 0.03
A20U U31G U41A A57G | 0.13
A20U U31G U41C A64G U74C U80C | 0.22
A20U U41A A57G U60C | 0.08
A20U U41A A64U A77U | 0.06
A20U U41A U43A | 0.2
A20U U41A U43C A45U | 0.08
A20U U41A U48C A56G A57G A64U U80C | 0.1
A20U U41A U78C | 0.16
A20U U41C A57C | 0.1
A20U U41C A57G | 0.2

Variant | self-cleavage
A20U U41C A57G U74C | 0.34
A20U U41C C79G | 0.45
A20U U41C G42A | 0.37
A20U U41C U49A A64U U72C | 0.19
A20U U41G A56G U58C U80A | 0.09
A20U U41G U43C U80C | 0.3
A20U U41G U72C U78C | 0.33
A20U U43A A45U C62A A64C | 0.14
A20U U43A A77U | 0.17
A20U U43A C81U | 0.4
A20U U43A G46U U54C G63A A77U | 0.04
A20U U43A U60A | 0.2
A20U U43A U74A | 0.78
A20U U43C A45U U48C G73U U78C | 0.2
A20U U43C A47G U51C U54C | 0.18
A20U U43C A56G C59U U60A U78A | 0.08
A20U U43C A56G U66A C68U | 0.08
A20U U43C A57G G61A | 0.2
A20U U43C U48C | 0.3
A20U U43C U58A | 0.13
A20U U48A U74C | 0.34

Variant | self-cleavage
A20U U48C C71A U80C | 0.08
A20U U48C U60C U74A | 0.27
A20U U48C U72G U80C | 0.23
A20U U49C U74C | 0.07
A20U U51A A65G U66C U69C | 0.13
A20U U51A A77U U80A | 0.33
A20U U51A C59G U78C | 0.16
A20U U51A G63A A64G U69C | 0.13
A20U U51A U72C | 0.27
A20U U51A U74C | 0.44
A20U U51C A64G | 0.1
A20U U51C C59A U74C U80G | 0.13
A20U U51C U58C | 0.12
A20U U51G A65G U74C | 0.19
A20U U54A U72A | 0.13
A20U U54C A56G | 0.3
A20U U54C U58A | 0.23
A20U U54C U72A | 0.24
A20U U54C U74C | 0.13
A20U U54G U60C U67C | 0.12
A20U U58C A64G | 0.58
